According to PubChem BioAssay (Tox21):
“And” between values parts separate entries of the source, which are not always exact repeats. Equal entries are not always repeated. The shares of active, inactive and inconclusive entries below differ from those in the screen. Potencies beside an inconclusive call are fits to weak or partial responses and may not hold up. Where a structure was tested more than once in an assay, its records may differ in their call. The source made the active and inactive calls. Calls follow the shape of the dose curve; as a rule, active = well fitted curve in the direction sought with a large enough effect in the repeat runs; inconclusive = weak or mixed curves; inactive = no such curve, though single readings can be large; an effect the other way counts as inactive or inconclusive.

How the values were obtained:
[1] = qHTS RealTime-Glo MT Cell Viability Assay in HepG2 cells - 40 hour (AID 1224870); details: RealTime-Glo luminescence; series mostly up to 76.8 µM; also: nearly all actives have a fitted effect of over 50% in size
Method in brief: (§1)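 HepG2 cells (600/well) mixed with RealTime-Glo MT reagent, settled 5 h at 37 C/5% CO2 before compound addition. Nonlytic NanoLuc luminescence from viable-cell prosubstrate reduction read repeatedly during 40 h treatment at 37 C.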

[2] = qHTS RealTime-Glo MT Cell Viability Assay in HEK293 cells - 40 hour (AID 1224874); details: RealTime-Glo luminescence; max response: stronger effect = lower value; also: nearly all actives have a fitted effect of over 50% in size
Method in brief: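 600 HEK293 cells per well, dispensed already mixed with RealTime-Glo MT reagents. Compound dosing came 5 h later. The same wells were read for luminescence at 0, 8, 16, 24, 32 and 40 h of exposure at 37 C.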

[3] = A CellTox Green Cytotoxicity Assay to monitor cytotoxicity in HepG2 cells - 16 hour (AID 1224876); details: CellTox Green fluorescence; series mostly up to 76.8 µM; also: nearly all actives have a fitted effect of over 45% in size; as to cytotoxicity increase: % is scaled to controls: 0 for no effect and ±100 for the full control effect
Method in brief: (§2)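 First, HepG2 cells (600/well) mixed with reagent were plated; second, after 5 h at 37 C they received compounds via pintool; third, fluorescence was measured at 0 h through 40 h at 8 h intervals.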

[4] = qHTS RealTime-Glo MT Cell Viability Assay in HepG2 cells - 32 hour (AID 1224877); details: RealTime-Glo luminescence; series mostly up to 76.8 µM; also: nearly all actives have a fitted effect of over 55% in size
Method in brief: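 Cells + NanoLuc/prosubstrate dispensed (600 cells/well) → 5 h at 37 C/5% CO2 → compounds in DMSO transferred → 40 h incubation at 37 C, luminescence read at 0, 8, 16, 24, 32, 40 h.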

[5] = A CellTox Green Cytotoxicity Assay to monitor cytotoxicity in HEK293 cells - 40 hour (AID 1224871); details: CellTox Green fluorescence; series mostly up to 76.8 µM; also: nearly all actives have a fitted effect of over 45% in size; as to cytotoxicity increase: % is scaled to controls: 0 for no effect and ±100 for the full control effect
Method in brief: (§3)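 Dead-cell fluorescence measured kinetically: asymmetric cyanine dye, HEK293, 600 cells/well, 5 h settle, 23 nL cpd/DMSO, 37 C, reads 0–40 h every 8 h.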

[6] = A CellTox Green Cytotoxicity Assay to monitor cytotoxicity in HepG2 cells - 40 hour (AID 1224879); details: CellTox Green fluorescence; series mostly up to 76.8 µM; also: nearly all actives have a fitted effect of over 40% in size; as to cytotoxicity increase: % is scaled to controls: 0 for no effect and ±100 for the full control effect
Method in brief: as §2

[7] = A CellTox Green Cytotoxicity Assay to monitor cytotoxicity in HepG2 cells - 24 hour (AID 1224878); details: CellTox Green fluorescence; series mostly up to 76.8 µM; also: nearly all actives have a fitted effect of over 45% in size; as to Cytotoxicity: % is scaled to controls: 0 for no effect and ±100 for the full control effect
Method in brief: as §2

[8] = qHTS RealTime-Glo MT Cell Viability Assay in HepG2 cells - 8 hour (AID 1224873); details: RealTime-Glo luminescence; series mostly up to 76.8 µM; also: nearly all actives have a fitted effect of over 55% in size
Method in brief: as §1

[9] = A CellTox Green Cytotoxicity Assay to monitor cytotoxicity in HEK293 cells - 24 hour (AID 1224875); details: CellTox Green fluorescence; series mostly up to 76.8 µM; also: nearly all actives have a fitted effect of over 45% in size
Method in brief: as §3

[10] = qHTS RealTime-Glo MT Cell Viability Assay in HEK293 cells - 16 hour (AID 1224872); details: RealTime-Glo luminescence; series mostly up to 76.8 µM; also: nearly all actives have a fitted effect of over 50% in size
Method in brief: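 Tox21 10K qHTS, HEK293, 600 cells/well, RealTime-Glo reagent co-dispensed with cells; 5 h preincubation, compound by pintool, 37 C, luminescence at 0–40 h.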
Potency is read from the fitted curve at half-maximal effect; tags tell the direction and shape of the fitted curve.

Compound: c1cc(CN2CCCCC2)cc(OCCCNc2nc3ccccc3s2)c1
- Potency [1]: inconclusive: 21.3 µM [falling, partial curve]
- Potency [2]: active: 9.52 µM
- Potency [3]: inconclusive: 26.8 µM [activator, single point]
- Potency [4]: inconclusive: 23.9 µM [cytotoxic, partial curve]

Compound: CC[N+](C)(C)c1cccc(O)c1
- Potency [5]: inactive

Compound: COC(=O)C1CC(=O)C(C(=O)OC)CC1=O (centres undefined)
- Potency [1]: inconclusive: 2.41 µM [rising, partial curve, poor fit]
- cytotoxicity increase [6]: inactive: -13.2% [at 6.97 µM]

Compound: Cn1cnc2c(F)c(Nc3ccc(Br)cc3Cl)c(C(=O)NOCCO)cc21
- Potency [1]: active: 0.674 µM
- Potency [3]: inconclusive: 13.4 µM [activator, partial curve, poor fit]

Compound: C[N+]1(CC2COC(c3ccccc3)(c3ccccc3)O2)CCCCC1 (centres undefined)
- Potency [1]: inconclusive: 11.7 µM [falling, single point]
- cytotoxicity increase [3]: inactive: -3.73% [at 15.8 µM]

Compound: CC[N+](CC)(CC)CCOc1cccc(OCC[N+](CC)(CC)CC)c1OCC[N+](CC)(CC)CC
- Potency [1]: active: 23.9 µM
- Potency [4]: inconclusive: 26.8 µM [cytotoxic, single point]

Compound: CCC(=O)OC(C)(C)C1CC=C(C)CC1 (centres undefined)
- Potency [5]: inactive

Compound: ClCCOCCOCCCl
- Potency [1]: inactive
- Potency [3]: inconclusive: 24.5 µM [activator, single point]
- Potency [7]: inconclusive: 21.9 µM [activator, single point]
- Potency [6]: inconclusive: 21.9 µM [activator, single point]

Compound: CC[N+]1(CC)CCC(=C(c2ccccc2)c2ccccc2)C1C (centres undefined)
- Potency [1]: inactive
- Potency [8]: inactive
- Potency [2]: inconclusive: 26.8 µM [cytotoxic, single point]

Compound: CCN(CC)CCNc1ccc(CNC=O)c2sc3ccc(OC)cc3c(=O)c12
- Potency [1]: active: 17.4 µM
- Potency [7]: inactive
- Potency [6]: inconclusive: 12.3 µM [activator, single point]

Compound: CC(Cl)COP(=O)(OCC(C)Cl)OCC(C)Cl (centres undefined)
- Potency [5]: inactive

Compound: O=S(=O)(O)c1cc(I)c(O)c2ncccc12
- Potency [5]: inactive

Compound: CCCCCCCCOCCCN
- Potency [5]: inactive

Compound: CCOC(=O)C(C)Oc1ccc(Oc2nc3ccc(Cl)cc3o2)cc1 (centres undefined)
- Potency [1]: inconclusive: 21.9 µM [falling, partial curve]
- Potency [8]: active: 15.5 µM
- Potency [2]: inconclusive: 49 µM [cytotoxic, partial curve]
- Potency [9]: inactive
- Potency [4]: inconclusive: 21.9 µM [cytotoxic, partial curve]

Compound: Nc1c[n+](N2CCOCC2)no1
- Potency [5]: inactive

Compound: NCCN
- Potency [1]: active: 13.8 µM
- Potency [4]: active: 21.9 µM

Compound: CC(C)C(=O)C(C)C
- Potency [1]: inactive
- Potency [9]: inactive

Compound: COc1cccc(O)c1
- Potency [1]: inactive
- Potency [6]: inactive

Compound: CCCCCc1cccc(=O)o1
- Potency [1]: inactive
- Potency [9]: inconclusive: 0.776 µM [activator, single point]

Compound: CCC(C)C(C)=O (centres undefined)
- Potency [5]: inactive

Compound: COC(=O)N[C@H](C(=O)N[C@@H](Cc1ccccc1)[C@@H](O)CN(Cc1ccc(-c2ccccn2)cc1)NC(=O)[C@@H](NC(=O)OC)C(C)(C)C)C(C)(C)C
- Potency [1]: inconclusive: 26.8 µM [falling, single point]
- Potency [8]: inconclusive: 26.8 µM [rising, single point]
- Potency [3]: inconclusive: 26.8 µM [activator, single point]
- Potency [7]: inconclusive: 26.8 µM [activator, single point]
- Potency [6]: inconclusive: 26.8 µM [activator, single point]

Compound: Cc1ccc(C)c([N+](=O)[O-])c1
- Potency [5]: inactive

Compound: O=C(O)c1cccnc1Nc1cccc(C(F)(F)F)c1
- Potency [1]: inactive
- Potency [7]: inactive

Compound: O=C(O)Cc1sc(-c2ccccc2)nc1-c1ccc(Cl)cc1
- Potency [5]: inactive

Compound: CCCOC(=O)c1ccc(N)cc1
- Potency [1]: inactive
- Potency [3]: inactive
- Potency [6]: inactive

Compound: CCc1cnc(C(=O)O)c(C(=O)O)c1
- Potency [1]: inactive
- Potency [7]: inactive

Compound: CCc1c(C)cc(N)c(CC)c1N
- Potency [1]: inactive
- Potency [7]: inactive

Compound: CCCCCCCC(=O)OCC
- Potency [1]: inconclusive: 30.9 µM [rising, partial curve, poor fit]
- Potency [6]: inactive

Compound: C=CCCCCCCCCC(=O)OCC
- Potency [5]: inconclusive: 17.4 µM [activator, partial curve, poor fit]

Compound: CC1=CP(=O)(c2ccccc2)CC1 (centres undefined)
- Potency [1]: inactive
- Potency [7]: inactive
- Potency [6]: inconclusive: 24.5 µM [activator, single point]

Compound: CN(C)CCCOc1nn(Cc2ccccc2)c2ccccc12
- Potency [1]: inconclusive: 26.8 µM [falling, single point]
- Potency [2]: inconclusive: 21.3 µM [cytotoxic, partial curve]
- Potency [9]: inactive
- Potency [3]: inconclusive: 26.8 µM [activator, single point]
- Potency [7]: inconclusive: 26.8 µM [activator, single point]
- Potency [6]: inconclusive: 26.8 µM [activator, single point]

Compound: N#Cc1ccc(C/C(=N/NC(=O)Nc2ccc(OC(F)(F)F)cc2)c2cccc(C(F)(F)F)c2)cc1
- Potency [1]: inconclusive: 61.6 µM [falling, partial curve, poor fit]
- Potency [4]: inconclusive: 49 µM [cytotoxic, single point]

Compound: CNNCc1ccc(C(=O)NC(C)C)cc1
- Potency [5]: inactive

Compound: O=C(c1ccc(O)cc1)c1ccc(O)c(O)c1O
- Potency [5]: inactive

Compound: c1ccc2c(c1)ccc1ccccc12
- Potency [5]: inconclusive: 53.5 µM [activator, single point] and inconclusive: 54.9 µM [activator, partial curve, poor fit]
- Potency [10]: inconclusive: 54.9 µM [cytotoxic, partial curve, poor fit]
- Potency [2]: inconclusive: 49 µM [cytotoxic, partial curve, poor fit]
- Potency [9]: inconclusive: 53.5 µM [activator, single point] and inconclusive: 61.6 µM [activator, single point]
- Potency [7]: inconclusive: 54.9 µM [activator, partial curve, poor fit]
- Potency [6]: inconclusive: 54.9 µM [activator, single point]

Compound: Clc1ccc(Cn2c(CN3CCCC3)nc3ccccc32)cc1
- Potency [5]: inconclusive: 26.8 µM [activator, partial curve, poor fit]
- Potency [10]: inconclusive: 26.8 µM [cytotoxic, single point]
- Potency [2]: inconclusive: 26.8 µM [cytotoxic, single point]

Compound: CCCC(=O)OCc1ccccc1
- Potency [5]: inactive

Compound: CCNS(=O)(=O)c1ccc(C)cc1
- Potency [5]: inconclusive: 0.0798 µM [activator, full curve, poor fit]

Compound: CC1=CC(=C(c2ccc(N)cc2)c2ccc(N)cc2)C=CC1=N
- cytotoxicity increase [5]: inactive: 5.33% [at 6.97 µM]
- Potency [10]: inconclusive: 2.48 µM [cytotoxic, single point]
- Potency [2]: inconclusive: 1.97 µM [cytotoxic, partial curve]

Compound: CCCCCCCN
- Potency [5]: inactive
- Potency [10]: inactive

Compound: CO[Si](OC)(c1ccccc1)c1ccccc1
- Potency [5]: inactive
- Potency [10]: inactive
- Potency [8]: inconclusive: 0.195 µM [falling, single point]
- Potency [9]: inactive

Compound: Cc1c(C(=O)NCCO)[n+](=O)c2ccccc2n1[O-]
- Potency [5]: inactive

Compound: Cc1cccc2c1ccc1ccccc12
- Potency [5]: inactive
- Potency [10]: inactive

Compound: Nc1ccc(S(=O)(=O)Nc2nccs2)cc1
- Potency [5]: active: 43.6 µM

Compound: C[C@H]1C[C@H]2[C@@H]3CCC4=CC(=O)C=C[C@]4(C)[C@@]3(Cl)[C@@H](O)C[C@]2(C)[C@@]1(O)C(=O)CO
- Potency [5]: inconclusive: 30.1 µM [activator, single point]
- Potency [10]: inconclusive: 30.1 µM [cytotoxic, partial curve, poor fit]
- Potency [8]: inconclusive: 23.9 µM [falling, partial curve, poor fit]

Compound: CCCC[P+](CCCC)(CCCC)CCCC
- Potency [5]: inconclusive: 54.8 µM [activator, single point] and inconclusive: 54.9 µM [activator, single point]
- Potency [10]: active: 21.8 µM and inconclusive: 7.06 µM [cytotoxic, full curve] and inconclusive: 6.92 µM [cytotoxic, full curve]

Compound: Cc1ccc(C2OC[C@@H]3OC(c4ccc(C)cc4)O[C@H]([C@H](O)CO)[C@@H]3O2)cc1 (some centres undefined)
- Potency [5]: inconclusive: 54.9 µM [activator, single point]
- Potency [10]: inconclusive: 54.9 µM [rising, partial curve]
- Potency [2]: inconclusive: 54.9 µM [rising, partial curve]
- Potency [9]: inconclusive: 54.9 µM [activator, single point]

Compound: CCOC(=O)CC(=O)C(=O)OCC
- Potency [5]: inconclusive: 24.5 µM [activator, full curve, poor fit]
- Potency [10]: inconclusive: 54.9 µM [cytotoxic, single point]

Compound: O=C(O)c1cn(C2CC2)c2cc(Cl)c(F)cc2c1=O
- Potency [5]: inconclusive: 10.7 µM [activator, single point]
- Potency [10]: inconclusive: 13.4 µM [rising, single point]
- Potency [2]: inconclusive: 10.7 µM [rising, single point]
- Potency [9]: inconclusive: 10.7 µM [activator, single point]

Compound: CC(C)(C)Cl
- Potency [5]: inactive

Compound: COCCCCCCCCOCCC[Si](C)(O[Si](C)(C)C)O[Si](C)(C)C
- Potency [5]: inconclusive: 54.9 µM [activator, single point]
- Potency [10]: inconclusive: 2.19 µM [cytotoxic, full curve]
- Potency [2]: active: 2.75 µM

Compound: O=c1c2ccccc2oc2ccccc12
- Potency [5]: inconclusive: 0.174 µM [activator, partial curve, poor fit]
- Potency [10]: inconclusive: 49 µM [cytotoxic, single point]
